Assay results from patent publication US20190016816A1 (APTEVO RESEARCH AND DEVELOPMENT, published 2019).

How the values were obtained:
[1] = biological target: T1, human CD137 on cells (human, UniProt Q07011 24-255); assay: cell-based or functional assay
[2] = biological target: T1, human CD137 on cells; assay: cell-based or functional assay; remark: listed apart in the source
[3] = biological target: T2, human 5T4 on cells (human, UniProt Q13641 32-420); assay: flow cytometry on human 5T4-expressing cells
T2 construct: also called TPBG; hu5T4
T2 sequence: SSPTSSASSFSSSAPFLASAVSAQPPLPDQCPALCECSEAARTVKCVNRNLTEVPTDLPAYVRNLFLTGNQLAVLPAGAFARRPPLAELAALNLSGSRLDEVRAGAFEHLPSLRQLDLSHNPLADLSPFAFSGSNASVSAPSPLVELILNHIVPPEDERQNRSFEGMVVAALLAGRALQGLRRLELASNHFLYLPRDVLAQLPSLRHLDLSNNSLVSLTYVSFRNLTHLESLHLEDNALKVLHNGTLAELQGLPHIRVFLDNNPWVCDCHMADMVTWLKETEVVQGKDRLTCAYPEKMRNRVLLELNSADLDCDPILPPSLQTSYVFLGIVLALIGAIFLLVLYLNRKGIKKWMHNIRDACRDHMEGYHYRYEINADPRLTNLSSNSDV

[4] = biological target: T2, human 5T4 on cells; assay: flow cytometry, CHO-K1 cells expressing human 5T4, labelled anti-human IgG secondary, MFI (mean)
Method: (§1) Binding studies were performed by standard flow cytometry-based staining procedures two cell lines expressing 5T4:CHO-K1 cells (obtained from Alligator) transduced with human or cynomolgus macaque 5T4 and SKOV-3 human ovarian adenocarcinoma cells which express (human) 5T4. All labeling and washes were performed in U-bottom 96-well plates in saline buffer with 0.1% BSA and 2 mM EDTA. Cell were plated at approximately 100,000 cells per well and incubated with a range of 100 nM to 0.05 nM concentrations of test molecules in […], for 30 minutes on ice. Cells were washed three times then incubated for another 30 min on ice with fluorescently-labeled secondary polyclonal antibody, F(ab′)² goat anti-human IgG (Jackson ImmunoResearch Laboratories). The cells were then washed twice and the samples acquired in a BD LSRII or a Symphony A3 flow cytometer. The sample files were analyzed using FlowJo software; the mean fluorescence intensity (MFI-mean) or median fluorescence intensity (MFI-median) of the live population of cells in each well was calculated after gating on live cells (forward vs side scatter). Nonlinear regression analysis to determine EC₅₀ values was performed in GraphPad Prism 6® graphing and statistics software.

[5] = biological target: T1, human CD137 on cells; assay: flow cytometry, CHO-K1 cells expressing human CD137, PE anti-human IgG Fc secondary, MFI (median)
Method: (§2) Binding studies on CHO-K1 cells lines expressing CD137 were performed by standard flow cytometry-based staining procedures. CHO-K1 cells (generated by Alligator) were transfected with human or cynomolgus macaque CD137. A typical experiment would label approximately 100,000 cells per well, in 96-well plates, with a range of 100 nM to 0.05 nM binding molecule in 50 μL of saline buffer with 2% BSA and 2 mM EDTA, for 30 min on ice, followed by washes and incubation with PE-labeled secondary antibody, goat anti-human IgG Fcγ ([…]), for 20 minutes on ice. Signal from bound molecules was detected using a LSR-II™ or a Symphony A3 flow cytometer (BD Biosciences) and analyzed by FlowJo flow cytometry analysis software. Median fluorescence intensity (MFI-median) of bound molecules on live cells was determined after exclusion of doublets cells. Nonlinear regression analysis to determine EC₅₀ values was performed in GraphPad Prism 6® graphing and statistics software.

[6] = biological target: T2, human 5T4 on cells; assay: flow cytometry, SKOV-3 cells (endogenous human 5T4), labelled anti-human IgG secondary, MFI (mean)
Method: as §1

[7] = biological target: T3, cynomolgus CD137 on cells (cynomolgus macaque, UniProt A9YYE7 24-254); assay: flow cytometry, CHO-K1 cells expressing cynomolgus CD137, PE anti-human IgG Fc secondary, MFI (median)
T3 construct: whole, on cells; also called CHO-K1/cynomolgus CD137 cell line; cynomolgus monkey CD137 on CD3-stimulated primary CD8 T cells
Method: as §2

[8] = biological target: T4, cynomolgus 5T4 on cells (cynomolgus macaque, UniProt Q4R8Y9 35-420); assay: flow cytometry, CHO-K1 cells expressing cynomolgus 5T4, labelled anti-human IgG secondary, MFI (median)
T4 construct: whole, on cells; also called CHO-K1/cynomolgus 5T4 transfectants
T4 sequence (looked up): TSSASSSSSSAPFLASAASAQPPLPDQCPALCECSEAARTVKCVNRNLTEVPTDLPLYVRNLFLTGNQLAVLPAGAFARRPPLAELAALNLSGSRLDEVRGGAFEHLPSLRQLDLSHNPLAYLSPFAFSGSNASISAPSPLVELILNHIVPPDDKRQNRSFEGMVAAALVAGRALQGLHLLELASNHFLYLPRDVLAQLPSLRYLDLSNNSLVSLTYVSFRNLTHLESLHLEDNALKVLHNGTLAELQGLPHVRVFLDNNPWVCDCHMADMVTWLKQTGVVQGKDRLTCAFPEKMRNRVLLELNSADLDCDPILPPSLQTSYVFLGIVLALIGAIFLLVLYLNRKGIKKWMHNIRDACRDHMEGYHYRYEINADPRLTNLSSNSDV
Method: as §1

[9] = biological target: T1, human CD137 on cells; assay: cell-based or functional assay; remark: listed apart in the source
[10] = biological target: T1, human CD137 on cells; assay: flow cytometry, CHO-K1/human CD137 cells, PE anti-human IgG Fc secondary, MFI (mean)
Method: as §2, with “Median fluorescence intensity (MFI-median) of bound molecules on live cells was determined after exclusion of doublets cells.” left out

[11] = biological target: T5, recombinant human CD137 extracellular domain (ECD) (human); assay: SPR (Biacore T200, 25 C), bispecific captured on anti-human IgG, monomeric ECD injected, 1:1 fit
T5 construct: Monomeric, made in HEK-293; also called Hu CD137; human 4-1BB ECD
Method: Goat anti-human IgG F(ab′)2 fragment (Jackson ImmunoResearch) at 20 μg/mL in 10 mM sodium acetate (pH 4.5) was immobilized at a density of 2000 response units (RU) onto the flow cell of a CM5 research-grade sensor chip (GE) by standard amine coupling chemistry. Each bispecific variant at 200 nM in HBS-EP+ buffer was captured in the flow cell with the immobilized anti-human IgG at a flow rate of 50 μL/min for 60 sec to reach ˜500 RU response, leaving one flow cell surface unmodified as the reference. Following a 30 sec stabilization period, four different concentrations of each ECD (0, 20, 60, and 180 nM) were injected at 50 μL/min for either 120 sec followed by a 240 sec dissociation period (for 5T4) or 90 sec followed by a 180 sec dissociation period (for 4-1BB). Regeneration was achieved by duplicate injections of 10 mM glycine (pH 1.5) at a flow rate of 50 μL/min for 30 sec followed by HBS-EP+ buffer stabilization for 1 min.
Sensorgrams obtained from kinetic SPR measurements were analyzed by the double subtraction method. […] The averaged buffer reference responses were then subtracted from analyte binding responses, and the final double-referenced data were analyzed with Biacore T200 Evaluation software (2.0, GE), globally fitting data to derive kinetic parameters. […]

[12] = biological target: T4, cynomolgus 5T4 on cells; assay: flow cytometry, CHO-K1/cynomolgus 5T4 transfectants, labelled anti-human IgG secondary, MFI (mean)
Method: as §1

[13] = biological target: T2, human 5T4 on cells; assay: flow cytometry, murine CT26 cells expressing human 5T4, labelled anti-human IgG secondary, MFI (mean)

T1 sequence (Q07011 24-255 limits assumed): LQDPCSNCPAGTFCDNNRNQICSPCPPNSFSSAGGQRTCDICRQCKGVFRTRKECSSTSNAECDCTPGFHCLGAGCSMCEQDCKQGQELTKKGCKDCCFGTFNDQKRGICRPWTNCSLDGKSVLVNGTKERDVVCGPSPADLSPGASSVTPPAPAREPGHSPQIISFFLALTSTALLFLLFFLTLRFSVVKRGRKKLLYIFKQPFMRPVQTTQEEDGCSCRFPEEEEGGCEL
T3 sequence (A9YYE7 entry or part of it): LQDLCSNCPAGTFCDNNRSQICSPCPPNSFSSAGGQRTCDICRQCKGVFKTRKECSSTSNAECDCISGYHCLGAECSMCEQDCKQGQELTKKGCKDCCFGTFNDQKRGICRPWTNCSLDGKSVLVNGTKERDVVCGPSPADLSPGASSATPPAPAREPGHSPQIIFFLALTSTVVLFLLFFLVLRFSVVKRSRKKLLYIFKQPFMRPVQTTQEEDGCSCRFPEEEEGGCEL

Row | Binder | CD137 Reporter Assay EC50 [1] | In vitro activity EC50 (nM), CD137 reporter assay [2] | EC50 [3] | EC50 [4] | Maximum MFI [4] | EC50 [5] | EC50 [6] | Maximum MFI [6] | EC50 [7] | EC50 [8] | Maximum MFI [8] | CD137 reporter assay with HCC1143 cells, EC50 against ALG.APV-004 [9] | CD137 reporter assay with HCC1143 cells, EC50 against ALG.APV-006 and ALG.APV-004 [9] | EC50 [10] | Maximum MFI [10] | Kd [11] | EC50 [12] | Maximum MFI [12] | EC50 [13] | Maximum MFI [13]
1 | ALG.APV-006 (bispecific antibody, ADAPTIR scFv-Fc-scFv homodimer; also called 1618 VHVL -Fc-1210 VHVL; parent construct) EVQLLESGGGLVQPGGSLRLSCAASGFTFSYGSMYWVRQAPGKGLEWVSSISSGSGSTYYADSVKGRFTISRDNSKNTLYLQMNSLRAEDTAVYYCARSSYYGSYYSIDYWGQGTLVTVSSGGGGSGGGGSGGGGSGGGGSDIQMTQSPSSLSASVGDRVTITCRASQSISSYLNWYQQKPGKAPKLLIYAASSLQSGVPSRFSGSGSGTDFTLTISSLQPEDFATYYCQQYYDNLPTFGQGTKLEIKSSSEPKSSDKTHTCPPCPAPEAAGAPSVFLFPPKPKDTLMISRTPEVTCVVVDVSHEDPEVKFNWYVDGVEVHNAKTKPREEQYNSTYRVVSVLTVLHQDWLNGKEYKCAVSNKALPAPIEKTISKAKGQPREPQVYTLPPSRDELTKNQVSLTCLVKGFYPSDIAVEWESNGQPENNYKTTPPVLDSDGSFFLYSKLTVDKSRWQQGNVFSCSVMHEALHNHYTQKSLSLSPGSGGGGSGGGGSGGGGSPS[letters of about 100 residues left out]YYGGYYSAWMDYWGQGTLVTVSSGGGGSGGGGSGGGGSGGGGSDIQMTQSPSSLSASVGDRVTITCRASQSISSYLNWYQQKPGKAPKLLIYAASSLQSGVPSRFSGSGSGTDFTLTISSLQPEDFATYYCQQTYGYLHTFGQGTKLEIKS | 0.23 nM | 0.23 nM | 15.7 nM | 8.6 nM | 14800 | 1.2 nM | 7 nM | 1660 | 1.8 nM | 22 nM | 24800 |  |  |  |  |  |  |  |  | 
2 | ALG.APV-178 (bispecific antibody, Optimized ADAPTIR scFv-Fc-scFv homodimer (anti-4-1BB scFv - Fc - anti-5T4 scFv)) EVQLLESGGGLVQPGGSLRLSCAASGFTFSHGSMYWVRQAPGKGLEWVSSISSGSGSTYYADSVKGRFTISHDNSKNTLYLQMNSLRAEDTAVYYCARSSYYGSYYSIDYWGQGTLVTVSSGGGGSGGGGSGGGGSGGGGSDIQMTQSPSSLSASVGDRVTITCRASQSISSYLNWYQQKPGKAPKLLIYAASSLQSGVPSRFSGSGSGTDFTLTISSLQPEDFATYYCQQYYDNLPTFGQGTKLEIKSSEPKSSDKTHTCPPCPAPEAAGAPSVFLFPPKPKDTLMISRTPEVTCVVVDVSHEDPEVKFNWYVDGVEVHNAKTKPREEQYNSTYRVVSVLTVLHQDWLNGKEYKCAVSNKALPAPIEKTISKAKGQPREPQVYTLPPSRDELTKNQVSLTCLVKGFYPSDIAVEWESNGQPENNYKTTPPVLDSDGSFFLYSKLTVDKSRWQQGNVFSCSVMHEALHNHYTQKSLSLSPGSGGGGSGGGGSGGGGSPS[letters of about 100 residues left out]YYGGYYSAWMDYWGQGTLVTVSSGGGGSGGGGSGGGGSGGGGSDIQMTQSPSSLSASVGDRVTITCRASQSISSYLNWYQQKPGKAPKLLIYAASSLQSGVPSRFSGSGSGTDFTLTISSLQPEDSATYYCQQTYGYLHTFGQGTKLEIKR |  |  |  | 8.8 nM | 14100 | 1 nM | 7.8 nM | 1650 | 1.7 nM | 32 nM | 26100 | 10 fold lower EC50 | ≤ 6 fold lower EC50 | 0.36 nM | 6720 | 70 nM | 9.5 nM | 26700 | 1.8 nM | 1480
